Assay results taken from PMC9050003, “N- and C-terminal regions of the small heat shock protein IbpA from Acholeplasma laidlawii competitively govern its oligomerization pattern and chaperone-like activity†” (RSC Advances, 2020).

Tests used:
Assay in all cases: pull-down; His6-AlIbpA proteins (0.4 mg) and bovine insulin (0.4 mg) in 300 μl 50 mM Tris–HCl pH 8.0, 200 mM NaCl, 30 min at 37 °C; Ni-NTA sepharose, eluted with 500 mM imidazole; 17.5% SDS-PAGE; grade from the ratio of band densities
Details in all cases: both partners purified
[1] = molecular target: T1, full-length recombinant AlIbpA (small heat shock protein IbpA from Acholeplasma laidlawii), His6-tagged (Acholeplasma laidlawii, UniProt A9NFB2 1-137)
T1 construct: small heat shock protein IbpA (AlIbpA) of Acholeplasma laidlawii PG8, full length; Legends call it AlIbpA-His6, the methods say the His6 tag is N-terminal; In solution a mixture of about 24-mer globules, fibrils and agglomerates; also called AlIbpA-His6; His6-IbpA; source: E. coli BL21(DE3), purified (Ni-NTA); also in E. coli BL21 pET-IbpA cells, cross-linked in the cells, crude cell extract; not …
T1 sequence (looked up): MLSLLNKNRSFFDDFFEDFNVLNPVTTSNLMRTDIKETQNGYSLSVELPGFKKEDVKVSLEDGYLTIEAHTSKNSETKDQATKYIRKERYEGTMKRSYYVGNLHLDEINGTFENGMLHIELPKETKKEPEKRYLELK

AlIbpASEPΔN25 = molecular target: T2, AlIbpASEPΔN25 (Acholeplasma laidlawii, UniProt A9NFB2 26-137, L134 replaced by S134 | L136 replaced by P136)
T2 construct: AlIbpA of Acholeplasma laidlawii PG8 lacking 25 N-terminal amino acids and with LEL substituted by SEP (L134S, L136P); source: E. coli BL21(DE3), purified (Ni-NTA); not shown: His6, N-terminal, kept
T2 sequence (looked up): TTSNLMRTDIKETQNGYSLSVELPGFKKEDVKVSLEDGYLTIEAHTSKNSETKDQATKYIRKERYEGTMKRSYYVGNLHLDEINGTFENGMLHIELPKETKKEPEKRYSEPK

AlIbpAΔN12 = molecular target: T3, AlIbpAΔN12 (Acholeplasma laidlawii, UniProt A9NFB2 13-137)
T3 construct: AlIbpA of Acholeplasma laidlawii PG8 lacking the first 12 amino acid residues; source: E. coli BL21(DE3), purified (Ni-NTA); not shown: His6, N-terminal, kept
T3 sequence (looked up): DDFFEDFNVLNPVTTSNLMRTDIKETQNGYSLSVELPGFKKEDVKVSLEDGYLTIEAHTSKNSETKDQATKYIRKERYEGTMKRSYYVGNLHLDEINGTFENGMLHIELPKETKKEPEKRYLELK

AlIbpAΔN25 = molecular target: T4, AlIbpAΔN25 (Acholeplasma laidlawii, UniProt A9NFB2 26-137)
T4 construct: AlIbpA of Acholeplasma laidlawii PG8 with 25 N-terminal amino acids removed (lacks both (W/F)(D/F)PF-like motifs); source: E. coli BL21(DE3), purified (Ni-NTA); not shown: His6, N-terminal, kept
T4 sequence (looked up): T2 sequence (looked up) with S109L, P111L

AlIbpAN11N12 = molecular target: T5, AlIbpAN11N12 (Acholeplasma laidlawii, UniProt A9NFB2 1-137, F11 substituted by N11 | F12 substituted by N12)
T5 construct: AlIbpA of Acholeplasma laidlawii PG8 with F11F12 substituted by N11N12, complete N-terminus length kept; source: E. coli BL21(DE3), purified (Ni-NTA); not shown: His6, N-terminal, kept
T5 sequence (looked up): T1 sequence (looked up) with F11N, F12N

AlIbpASEPΔN12 = molecular target: T6, AlIbpASEPΔN12 (Acholeplasma laidlawii, UniProt A9NFB2 13-137, L134 replaced by S134 | L136 replaced by P136)
T6 construct: AlIbpA of Acholeplasma laidlawii PG8 lacking 12 N-terminal amino acids and with LEL substituted by SEP (L134S, L136P); source: E. coli BL21(DE3), purified (Ni-NTA); not shown: His6, N-terminal, kept
T6 sequence (looked up): T3 sequence (looked up) with L122S, L124P

Measured: binding result

B1: bovine insulin (natural protein)
chain 1: not shown
chain 2: not shown
notes: The catalogue number is printed for the SPR experiment; the pull-down methods say only bovine insulin (Sigma); source: bought: Sigma (SigmaAldrich cat no. I6634)
binds: [1] | AlIbpASEPΔN25 | AlIbpAΔN12 | AlIbpAΔN25 | AlIbpAN11N12 | AlIbpASEPΔN12

Where a chain is given by its changes, count along the chain named.
